Over roughly 33,000 sequences, “E-score (dimensionless, -0.5 to 0.5)” has its median near -0.058; the highest 2% begin near 0.35. This is one part of the list.
test system: MvaT; assay: PBM 8-mer E-score (mean of HK and ME arrays) (E-score (dimensionless, -0.5 to 0.5)); higher = stronger relative binding preference; most listed sequences are background and not binding sites
Method: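 Protein binding microarray: GST-tagged full-length MvaT (P. aeruginosa PAO1) bound to two universal double-stranded 60-mer arrays (ME and HK), each with a constant 25-mer primer and a variable 35-mer region covering all 8-mers. The 8-mer E-score (rank-based, range -0.5 to 0.5, >0.45 = specific binding) is the mean of the two arrays.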

Sequence | PBM 8-mer E-score
AGTTATAT | 0.437
CCGAGAGA | -0.211
CGGACAGC | -0.207
ACTCTAGG | -0.0989
GAACTATA | 0.308
GTACGAAA | 0.0985
AGTTTTGA | 0.173
AAATCTAA | 0.209
CGGGGGGC | -0.256
GGGCCCAA | -0.295
CACGTGTC | -0.0855
GGGATTGA | -0.0975
ACTCTAAT | 0.277
GATCCTCC | -0.202
GCAGCAAA | -0.00143
ACTCCAAC | 0.000945
GTGCCAGA | -0.146
GGCTCGAC | -0.248
GCCTCACC | -0.237
CAGTATGC | -0.115
AGTGTAAA | 0.249
TATCTCGA | 0.17
CGCTTGGA | -0.206
AGAGGCCT | -0.302

Sequence | PBM 8-mer E-score
AAGGTTGC | -0.221
ATCGATGG | 0.00882
CGGTATAC | 0.173
GGTATGCA | -0.0553
CCATATTC | 0.161
ATCAGCCC | -0.126
CAATGTCC | -0.106
ACCTTCGG | -0.338
GCTATAAC | 0.13
AGGAAGGC | -0.356
GTGTTTCA | 0.0552
AAAGGAAA | -0.203
ATGTAACA | 0.293
CTCGGCGA | -0.109
GGGCCACC | -0.382
CCCCACCC | -0.325
CCCTACGC | -0.234
CTTCAGAA | 0.00741
GCCTGAAC | -0.184
TCCGCGAA | -0.106
AGAACTGC | -0.0868
GACAGTTA | 0.204
AGATCACG | -0.151
AAATAAAG | 0.405

Sequence | PBM 8-mer E-score
TCACTAAA | 0.09
AGCACAGG | -0.197
CGACTAAA | 0.0875
ATCACGAA | 0.0464
GAGAGTCC | -0.294
CTTTATGA | 0.126
ACCTCGAT | -0.0851
AAGACAGG | -0.129
CGACGCCA | -0.199
AGTGTCCA | -0.0879
AATTGTAG | 0.182
CCGCGAAG | -0.217
AAAAGCGG | 0.0615
CTCCAAAC | -0.0484
CTAGTTCC | -0.114
GGTGTGCA | -0.032
GTGAACCA | -0.139
TACTCCTA | -0.0716
CACGTTTA | 0.144
CTCACCTA | -0.0511
AGTAGGAA | 0.0174
CGGGGGAA | -0.0708
AGTAGGTC | -0.199
AGGTCCCA | -0.174

Sequence | PBM 8-mer E-score
CCAGGTGC | -0.286
CCGGTCCA | -0.119
AGCTTAGG | -0.164
ACCTAGAC | -0.213
CAGGTCCG | -0.271
GTTCTTAA | 0.133
CTTTCTGC | -0.0902
GCAGTCCC | -0.22
GGGGTGAA | 0.00647
CTTAATCC | 0.0506
CATCGGTA | -0.0732
ATTGGTGG | 0.00541
ACGTACAT | 0.13
CCGTGAAG | -0.181
GTCATAGA | -0.137
ACCTGACT | -0.114
AAACGGAT | 0.0223
GCACTTAA | 0.222
GCCGAATA | 0.0593
CACGCCTC | -0.232
CCGAGGCA | -0.0427
ATTGCTCG | 0.057
